Assay results: the RNAGym collection of RNA variant scans (doi:10.7554/elife.90254)
Read counts are not given, so values of variants with three or more changes are uncertain.

B1: LINE1-mini (parent)
chain: GGCAGAGCUCAACACAGCGUGGCAAAGUGGCUGUGGCUAGACUGCC

Variants of: B1
Experiment: self-cleavage, relative activity (ratio to wild type); higher = more cleavage; in vitro, sequencing; the parent is a self-cleaving ribozyme

| Variant | self-cleavage |
| --- | --- |
| GGCAGAGCUCAAGACUGCGUGGCAAAGUGGAUGUGGCUAGACUGCC [C13G A16U C31A] | 0 |
| GGCAGAGCUCAAGACUGCGUGGCAAAGUGGCUGUGGCUAGAGUGCC [C13G A16U C42G] | 0.01 |
| GGCAGAGCUCAAAACAGCGUGGCAAAGUGGCUGCGCCUAGACUGGC [C13A U34C G36C C45G] | 0.02 |
| GGCAGAGCUCAAGAGAGUGUGGCAAAGUGGCUGAGGCUUGACUGCU [C13G C15G C18U U34A A39U C46U] | 0.14 |
| GGCAGAGCUCAAGGCAGCGUGGCACAGUGGCUGUGGCUAAACUGAC [C13G A14G A25C G40A C45A] | 0.11 |
| GGCAGAGCUCAAGACCGCUUGACAAAGUGGCUGUGGCUAGACUGCC [C13G A16C G19U G22A] | 0.01 |
| GGCAGAGCUCAAAACAGCGUGGCAAAGUGGCUGUGGCUAGACCGCA [C13A U43C C46A] | 0.14 |
| GGCAGAGCUCAAAACAGCGUGGCAAAGUGGCUGAAGCUAGACUGCC [C13A U34A G35A] | 0.14 |
| GGCAGAGCUCAAGAAAACGUGGCAAAGUGGCUGUGGCUAGACUGCC [C13G C15A G17A] | 0.14 |
| GGCAGAGCUCAAAACAGCGUGGCAAAGUGGCUGAGGCUAAGCUGCG [C13A U34A G40A A41G C46G] | 0.01 |
| GGCAGAGCUCAAGGCAGCGUCGCAAAGUGGCUGUGGCGAGACUGCC [C13G A14G G21C U38G] | 0.02 |
| GGCAGAGCUCAAGACAGCGUGGGAAAGUGGCUGUGGCUCGACUGCC [C13G C23G A39C] | 0.12 |
| GGCAGAGCUCAAGACAGUGUGGCAAUGUGGCUGUGGCUAGACUGCC [C13G C18U A26U] | 0.07 |
| GGCAGAGCUCAAGCCAGCGUGGCCAAGUGGCUGUGGCUAGAUUCCC [C13G A14C A24C C42U G44C] | 0.14 |
| GGCAGAGCUCAAGUCAUCGUGGCAAAGUGGCUGCGGCUAGACUGCC [C13G A14U G17U U34C] | 0.06 |
| GGCAGAGCUCAAGAUAGCGUGGCAAAGUGGCUGUGACUCGACUGCC [C13G C15U G36A A39C] | 0.08 |
| GGCAGAGCUCAAGACAGCGUGGCAAUGUGGCUGUGGCUAGACUGCA [C13G A26U C46A] | 0.06 |
| GGCAGAGCUCAAGACAGCGUGGCAAGGUGGCUGUGGCUAGACUGCG [C13G A26G C46G] | 0.02 |
| GGCAGAGCUCAAGACAACGUGGCAAAGUGGCUGUGGCUAGUCUGCC [C13G G17A A41U] | 0.02 |

| Variant | self-cleavage |
| --- | --- |
| GGCAGAGCUCAAAACAGCGUGGCAAAGUGGCUGCGGCAAUAUUGUC [C13A U34C U38A G40U C42U C45U] | 0.06 |
| GGCAGAGCUCAAGACAGCGUGGCUAGGUGGCUGUGGCUAGACUGCC [C13G A24U A26G] | 0.05 |
| GGCAGAGCUCAAGUCAGAGUGGCAAAGUGGCUGUGGCUAGUCUGCC [C13G A14U C18A A41U] | 0.09 |
| GGCAGAGCUCAAGACAGUGUGGCAAAGUGGCUGUGGCUAGACCGCC [C13G C18U U43C] | 0.06 |
| GGCAGAGCUCAAGCCAGCGUGGCAUAGUGGCUGUGGCUAGACUGCC [C13G A14C A25U] | 0.04 |
| GGCAGAGCUCAAGACAGAGUGCCAAAGUGGCUGGGGCAAGACUGCA [C13G C18A G22C U34G U38A C46A] | 0.04 |
| GGCAGAGCUCAAGAGAGCGUGGCAAUGUGGCUGUUGCUAGACUGCC [C13G C15G A26U G35U] | 0.01 |
| GGCAGAGCUCAAGAUAGCGUGGCAAAGUGGAGGUGGCUAGACUGCC [C13G C15U C31A U32G] | 0.09 |
| GGCAGAGCUCAAAACAGCGUGGCAAAGUGGCUGUGGCUAGACAGAC [C13A U43A C45A] | 0.15 |
| GGCAGAGCUCAAGAGAGCUGGGCAAAGUGGCUGUGGCUAGACUGCA [C13G C15G G19U U20G C46A] | 0.01 |
| GGCAGAGCUCAAGACAGCGUGGCAAAGUGGUUGUGGCUAUACUGCC [C13G C31U G40U] | 0.01 |
| GGCAGAGCUCAAGACAGCGUGGAAAAGUGGCUGUUGCUAGACUGCC [C13G C23A G35U] | 1.18 |
| GGCAGAGCUCAAGACAGCGUGGCGAAGUGGCUGUGACUAGACUCCG [C13G A24G G36A G44C C46G] | 0.02 |
| GGCAGAGCUCAAGACAGCGUGGCAUAGUGGUUGUGGCUAGGCUGCC [C13G A25U C31U A41G] | 0.01 |
| GGCAGAGCUCAAGUCAGCGUGGCAAAGUGGCUGUGGAUAGACUGCC [C13G A14U C37A] | 0.03 |
| GGCAGAGCUCAAGCCAGCGUGGCAUAGUGGCUGCGGCUAGACUCCC [C13G A14C A25U U34C G44C] | 0.01 |
| GGCAGAGCUCAAGACAACGUCGCAAAGUGGCUGUGGGUAGACUGCC [C13G G17A G21C C37G] | 0.08 |
| GGCAGAGCUCAAGACAGGGUGGUAAAGAGGCUGUGUCUAGACUGUC [C13G C18G C23U U28A G36U C45U] | 0 |
| GGCAGAGCUCAAGAAAGCGCGGCAAAGUGGAUUUGGGUAGACUGCC [C13G C15A U20C C31A G33U C37G] | 0.03 |

| Variant | self-cleavage |
| --- | --- |
| GGCAGAGCUCAAGACUGCGUGGCAAAGUAGCUGUGGCUAGACUGCC [C13G A16U G29A] | 0.05 |
| GGCAGAGCUCAAGCCAGCGUGGCAAAGUGGCUGUGGCUUGACUGCC [C13G A14C A39U] | 0.05 |
| GGCAGAGCUCAAGACAGCGUGGCACAGUUGAUGUGGCUAGACUGCC [C13G A25C G29U C31A] | 0.08 |
| GGCAGAGCUCAAAACAGCGUGGCAAAGUGGCUGAGGCUAUACUGCC [C13A U34A G40U] | 0.05 |
| GGCAGAGCUCAAGAAAGCGUGGAAAAGUGGCUUUGGCUAGACUGCC [C13G C15A C23A G33U] | 0.03 |
| GGCAGAGCUCAAGACACCGUAGCAAAGUCGCUGUGGCUGGACUGCC [C13G G17C G21A G29C A39G] | 0.11 |
| GGCAGAGCUCAAGCCAGCGUGGCAAGGUGACUGUGGCUAGACUGCC [C13G A14C A26G G30A] | 0.07 |
| GGCAGAGCUCAAGACUGCGUCGCAAAGUGGCUGUGCCUAGAGUGCC [C13G A16U G21C G36C C42G] | 0.02 |
| GGCAGAGCUCAAGACAGCGUGGCAGAGUGGCUGUGGCUAGUCUGCC [C13G A25G A41U] | 0.02 |
| GGCAGAGCUCAAGACAGUGUGGCAAAGUGGCUAUGGCUAGACUGCC [C13G C18U G33A] | 0.02 |
| GGCAGAGCUCAAGACAGUGUGGCAAAGUGGCUUUGGCUAGACUGCC [C13G C18U G33U] | 0 |
| GGCAGAGCUCAAGAUAGCGUGACAAAGUGGCUGUGGCUAGACUGCC [C13G C15U G22A] | 0.07 |
| GGCAGAGCUCAAGAGAGCGUGGCAAAGUCGCUGUGGCUAGACUGCC [C13G C15G G29C] | 0.1 |
| GGCAGAGCUCAAGCCAGGGUGGCAAAGUGGCUAUGGCUAGACUGCC [C13G A14C C18G G33A] | 0.05 |
| GGCAGAGCUCAAGAUAGCGUGGCAAAGUGGCUGUGGGUAGACUGCC [C13G C15U C37G] | 0.19 |
| GGCAGAGCUCAAGACUGCGAGGCCAAGCGGCUGUGGCUAGACUGCC [C13G A16U U20A A24C U28C] | 0.06 |
| GGCAGAGCUCAAGACAGGGUGGCAAAGUGGCUGUGGCUAGACUUCC [C13G C18G G44U] | 0.5 |
| GGCAGAGCUCAAGACAGCGUGGCAUAGUGGAUGUGGCUAGACUGCC [C13G A25U C31A] | 0.11 |
